Tests used:
[1] = target: T1, purified recombinant human Napi2b antigen (Napi2b-extracellular-loop2 Fc-fusion-6-His) (Homo sapiens, UniProt O95436); test: Binding to immobilized human NaPi2B evaluated by ELISA; details: one-site specific binding model, n=2
T1 construct: Napi2b antigen consisting of Napi2b-extracellular-loop2 expressed as Fc-fusion-6-His-tagged protein in Expi-HEK293 cells; Fc-fusion; 6-His; made in house; host or cells: Expi-HEK293 cells
T1 sequence (O95436 234-362 limits assumed): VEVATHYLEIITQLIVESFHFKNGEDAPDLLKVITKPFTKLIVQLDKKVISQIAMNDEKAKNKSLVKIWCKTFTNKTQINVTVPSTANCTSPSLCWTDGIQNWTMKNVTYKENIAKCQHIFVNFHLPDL
Experimental: Binding of increasing concentrations of parental mAb and AV mAb clones to a purified recombinant immobilized human Napi2b antigen was tested in an ELISA setting.
To determine binding of parental and AV mAb clones to Napi2b antigen, flat-bottom surface-treated 96-well-plates (Nunclon, Thermo Fisher Scientific) were coated with 1 μg/mL purified recombinant human Napi2b antigen consisting of Napi2b-extracellular-loop2 expressed as Fc-fusion-6-His-tagged protein in Expi-HEK293 cells. After blocking with 2% bovine serum albumin (Carl Roth) in 1× PBS-Tween 20 (0.05%), increasing antibody concentrations (0.00015, 0.00046, 0.00137, 0.00412, 0.01235, 0.03704, 0.11111, 0.33333, 1.00000, 3.00000, 9.00000 μg/ml) were allowed to bind for 2 hr at room temperature. Bound antibodies were detected by incubation with HRP-conjugated goat anti-human kappa light chain secondary antibody (dilution 1:10000 in blocking solution) for 1 hr at RT. […] Absorbance at 450 nm was measured within 10 min of addition of acid using a microplate reader Infinite M1000 Pro (Tecan). Apparent dissociation constants (KD) were derived by non-linear regression using a one-site specific binding model using Prism 9 software. KD in μg/ml, 0.02209 parental mAb, 0.01581 AV15, 0.01494 AV18, 0,01248 AV21, 0,01060 AV25, 0.01238 AV29.

[2] = tested on: patient derived tumor models (lung, endometrial and ovarian cancer); test: In vivo efficacy in patient derived xenograft models (PDX), 10 mg/kg; set-up: species or system NMRI nu/nu mice; details: 10 mg/kg once at day 0, i.v.
[3] = tested on: patient-derived ovarian cancer xenograft models; test: PDX studies (10 mg/kg) in patient-derived ovarian cancer xenograft models; format: in vivo, NMRI nu/nu mice; details: single 10 mg/kg dose; incl. BRCA-mutated and low Napi2b expression models
Source text: The PDX experiments have been performed as described in example 2.

[4] = In vivo toxicity in cynomolgus monkeys
Experimental: Toxicology studies were performed in cynomolgus monkeys.

[5] = tested on: 0v6668 ovarian cancer model; test: Dose response PDX study Ov6668 (efficacy, bodyweight); format: in vivo, NMRI nu/nu mice; details: for Tumor response: single injection
target-negative cells = test: In vitro cytotoxicity via resazurin assay on target-negative cells; format: cell-based; details: 7 days, 0-12 μg/ml
OVCAR-3 and HCC-78 cells = test: DNA damage / apoptosis markers (cleaved PARP, active caspase 3, pH2AX) by flow cytometry, dose response; format: cell-based; details: 0.05-12 μg/ml, 72 h
Experimental: Topoisomerase-I inhibition by delivery of exatecan via the AV25-P5(PEG24)-VC-PAB-Exatecan DAR8 ADC induces DNA damage as detected by the accumulation of cleaved PARP, active caspase 3 and phosphorylated histon 2AX (pH2AX). OVCAR-3 and HCC-78 cells (both Napi2b^high) were treated with increasing concentrations (0.05-12 μg/ml) of AV25-P5(PEG24)-VC-PAB-Exatecan or an Isotype control (isotype-P5(PEG24)-VC-PAB-Exatecan for 72 h. Cells were stained with live/dead stain (Thermo Fisher Scientific) and after fixation and permeabilization using the Fixation/Permeabilization kit (BD Biosciences) for the DNA damage markers active caspase 3, cleaved PARP and pH2AX (Ser-139) (all BD Biosciences) and analyzed by flow cytometry. Graphs show means of n=2±SEM.
FIGS. 42A and 42B show the dose-dependent induction of DNA-damage and apoptosis markes in response to treatment with increasing concentrations of AV25-P5(PEG24)-VC-PAB-Exatecan DAR8. A corresponding non-targeting isotype control conjugate was included as negative control. HCC-78 cells (A, NaPi2b^high) and OVCAR-3 cells (B, NaPi2b^high) were treated with increasing concentrations (0.05-12 μg/ml) of AV25-P5(PEG24)-VC-PAB-Exatecan DAR8 or the Isotype ADC (Isotype-P5(PEG24)-VC-PAB-Exatecan DAR8) for 72 h, Cells were stained for cleaved PARP (left), Caspase 3 (middle) and pH2AX (right) and analyzed via flow cytometry. Graphs show means of n=2±SEM.

B1: AV25: humanized anti-NaPi2b IgG1 antibody, light chain SEQ ID NO: 6, heavy chain SEQ ID NO: 7, Fc-silenced (LALA) (antibody)
heavy: EVQLVQSGAEVVKPGASVKMSCKASGYTFTGYIIHWVKQAPGQGLEWIGAIYPGSGATSYKQKFRGRATLTADTSTSTVYMELSSLRSEDSAVYYCARGETARATFAYWGQGTLVTVSS[human IgG1 constant region with changes skipped]
light: DIQMTQSPSSLSASVGDRVTITCSASQDIGNFLNWYQQKPGKTVKVLIYYASSLYSGVPSRFSGSGSGTDYTLTISSLQPEDFATYYCQQYSKLPLTFGQGTKLELKRTVAAPSVFIFPPSDEQLKSGTASVVCLLNNFYPREAKVQWKVDNALQSGNSQESVTEQDSKDSTYSLSSTLTLSKADYEKHKVYACEVTHQGLSSPVTKSFNRGEC
modifications: Heavy chain without a signal seqeunce; Light chain without a signal seqeunce
In the case of B1, the “Apparent dissociation constants (KD)” value [1] is reported as 0,01060 μg/ml.

B2: AV25-P5(PEG24)-VC-PAB-Exatecan DAR 8: AV25 antibody conjugated to P5(PEG24)-VC-PAB-Exatecan, DAR8 (conjugate)
heavy: EVQLVQSGAEVVKPGASVKMSCKASGYTFTGYIIHWVKQAPGQGLEWIGAIYPGSGATSYKQKFRGRATLTADTSTSTVYMELSSLRSEDSAVYYCARGETARATFAYWGQGTLVTVSS[human IgG1 constant region with changes skipped]
light: B1 light
For B2, the “Efficacy compared to vehicle control” value [2] was “very high and long-lasting efficacy”, the “Efficacy compared to vehicle control” value [3] was “very high and long-lasting efficacy” and the “Changes in body weight, clinical chemistry, hematology and histopathology” value ([4]; 10 and 20 mg/kg i.v. on days 1 and 22) was “No severe changes”. The “HNSTD compared to doses explored in toxicology studies with other NaPi2B-targeting ADCs” value ([4]; cynomolgus monkey, in vivo) was “at least 6 times”, the “HNSTD (highest nonseverely toxic dose)” value ([4]; i.v. on days 1 and 22, necropsy day 43) was “at least 20 mg/kg” and the Bodyweight ([5]; 5, 3 and 1 mg/kg once at day 0) was “No reduction in bodyweight”. The Tumor response ([5]; 1 mg/kg) was “strong tumor regression which was followed by partial tumor re-growth after day 40”, the Tumor response ([5]; 5 and 3 mg/kg) was “Complete tumor remission” and the Unspecific toxicity (target-negative cells) was “No unspecific toxicity”. For the same molecule, the “Accumulation of DNA damage (cleaved PARP-, active caspase 3- and pH2AX-positive cells)” value (OVCAR-3 and HCC-78 cells) was “induces a concentration-dependent accumulation of DNA damage”.
